# Laboratory results reported in the supplement of paper PMC10338343.
# ± gives the standard deviation. The list shows a part of the results, in another mix than the full data.
# Tested on: MIWI (PIWIL1) piRISC loaded with L1MC piRNA (30 nt)
# Assay: pre-steady-state target cleavage rate (min^-1); MIWI and MILI are mouse PIWI proteins and EfPiwi is from a freshwater sponge; tags in brackets are library labels; higher = faster piRNA-guided slicing of the target
# Settings: guide: L1MC piRNA 5'p-UAACUAAAUACUAUGCAAGCUGUAGGUCCU; auxiliary factor: 500 nM mouse GTSF1
# Procedure, shortened: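 A burst-and-steady-state fit was used to obtain the pre-steady-state cleavage rate. The input data were sequencing reads of uncleaved targets, normalised to depth and to weakly complementary targets, from a […] transcribed, DNA-blocked target RNA library mixed with 1 nM active affinity-purified piRISC holding one synthetic guide, with or without 500 nM GTSF1 partner protein, in HEPES–potassium acetate buffer at 33 °C for 0–8 or 0–960 min. Three trials were pooled and k3 was capped at 0.0001 min^-1.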
# 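Also: 1 nM active piRISC with 0.1 nM target library at 33 °C single turnover.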
row,Sequence,pre-steady-state target cleavage rate
1,AGGACCUACAGCUUGCAAUGUAUUUAGAAA,0.145 ± 0.025
2,UCCUGGAUGUCGAACGUUAGCUAUUUAGUUA,< 0.0001
3,AGCUGCUACAGCUUGCAUAGUAUUUUCAAA,0.251 ± 0.051
4,UCCUCCUACAGCAACCAUAGUAUUUAGUAA,0.0869 ± 0.025
5,UCCUGGAACAGCUUGCAUAGUUAUUAGAAA,0.0177 ± 0.0088
6,AGGACCUACACGAUGCAUAGUAUUUACAAA,0.19 ± 0.025
7,UGGACCUACAGCUUCGAUAGUAUUUAGUUA,0.807 ± 0.087
8,UCCUGGAUGUCGUUGCAUAGUAUUAGUUA,< 0.0001
9,UCCUGGAUGAGCUUGCAUAUAUUUAGUUA,0.00814 ± 0.0039
10,UCCUGCUACAGCUUGCAUUCUAUUUAGAAA,0.0941 ± 0.032
11,UCCUGGAUCAGCUUGCAUGUAUUUAGUUA,0.0152 ± 0.0038
12,UCCUGCUACAGCUACGAUAGUAUUUAGUAA,0.105 ± 0.031
13,UCCUGGUACAGCUUCGAUAGUAUUUAGUAA,0.216 ± 0.033
14,UCCUGGAACAGCUUCCAUACUAUUUAGUUA,0.0129 ± 0.006
15,UCCUGGAUGUCGAAGCAUAGUAUUUUGUUA,0.00423 ± 0.0028
16,UCGACCUACAGCUUGCUAAGUAUUUACAAA,0.0259 ± 0.0099

row,Sequence,pre-steady-state target cleavage rate
1,AGGACCUACAGCAUCCAUAGUAUUUAGUUA,0.319 ± 0.053
2,UCCUGGAUGAGGUUGCAUUGUAUUUAGUUA,0.016 ± 0.0037
3,UCCUGCUACAGCUUGCAUUGUAUUUAGAAA,0.262 ± 0.039
4,UCCUGGAUGUGCUUGCAUAGUAUAAUGUAA,0.00478 ± 0.0038
5,UCCUGGUACAGCUUGCAUAGUUUUUUCAAA,0.0267 ± 0.014
6,UCCUGGAUGUGCUUGCAUAGUGAUUUAGUUA,0.00393 ± 0.0038
7,AGGACCUACAGGAUGCAUAGUAUUUACAAA,0.291 ± 0.041
8,AGGACCUACAGCUUGCUUAGUAUUUUCAAA,0.195 ± 0.035
9,UCCACCUACACGAUGCAUAGUAUUUACAAA,0.221 ± 0.044
10,AGGACCUACAGCUUGCAUUAGUAUUUAGUUA,0.147 ± 0.044
11,UCCUGGAUGUCCUUGCAUAGUAUUUAUGUUA,0.019 ± 0.006
12,UCGACCUACAGCUUCGUUAGUAUUUAGUUA,0.0763 ± 0.01
13,UCCUGGAUGUCGAACGUAAGUAUUUAGUAUA,< 0.0001
14,UCCUGCUACAGCUUGCAUACAUUUUAGUUA,0.0106 ± 0.0058
15,UCCUGGAUGUCGAACGUAUGAAUUUACUUA,< 0.0001
16,UCCUGGAUGUCCUUGCAUAGUUUUUACUUA,0.00583 ± 0.0041

# Same assay, conditions: guide: L1MC piRNA 5'p-UAACUAAAUACUAUGCAAGCUGUAGGUCCU; auxiliary factor: none (no GTSF1)
row,Sequence,pre-steady-state target cleavage rate
1,UCCUGGAUGUCGAACGAUUAGUAUUUAGUUA,< 0.0001
2,UCCUGGAUGUCGAACGAUUGUAUUUAGAUA,< 0.0001
3,UCCUGGAUGAGCUUCGUUAGUAUUUAGAAA,< 0.0001
4,UCCUGGAUGUCGAACGUAAGAUUUAGUUA,< 0.0001
5,UCCUGGAUGUCGAACGAUAGUAAUUAGAUA,< 0.0001
6,UCCUGGAUGUCGAAGCAUAGAAUUUAGUAA,< 0.0001
7,UCCUGGAUGUCCUUGCAGAGUAUUUAGUUA,0.00314 ± 0.002
8,UCCUGGAUGUGCUUGGUUAGUAUUUAGUAA,0.00345 ± 0.0031
